The RNAGym collection of RNA variant scans (doi:10.1073/pnas.2313332121)
Variants at the background level are over-represented here.

B1: TPR 5TU (parent)
chain: GGAUCUUCUCGAUCUAACAAAAAAGACAAAUCUGCCACAAAGCUUGAGAGCAUCUUCGGAUGCAGAGGCGGCAGCCUUCGGUGGCGCGAUAGCGCCAACGUUCUCAACUAUGACACGCAAAACGCGUGCUCCGUUGAAUGGAGUUUAUCAUG

Variants of: B1
Assay: polymerase ribozyme fitness, log enrichment relative to wild type (log ratio); higher = more active; in vitro selection for triplet polymerase activity
Method in brief: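 To select mutant libraries of each subunit of a heterodimeric triplet polymerase ribozyme, built by PCR and transcribed, each was annealed with a biotinylated primer, partner subunit and triplets, then incubated frozen at −7 °C. Extended constructs were gel-excised, captured on streptavidin beads and amplified by RT-PCR, in one round carried out in triplicate. Illumina sequencing of input and output libraries kept genotypes with ≥10 input reads and ≥1 read per output. Fitness is the base-2 logarithm of genotype enrichment relative to wild-type enrichment, from inverse-variance-weighted replicate averages.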

Polymerase ribozyme fitness (log ratio), ≤ -4.2:
GGAUCUUCUCGAUCUAACAAAAAAGACAAAUCUGCCACAAUGCUUGAGAGCAUCUUCCGAUGCAGAGGCGGCAGCCUGCGAUGGCGCGAUAGCGCCAACGUUAUCAACUAUGACACGCAAAACGCGUGCUCGGUUGAAUGGAGUUUCUCAUG [A41U G58C U78G G81A C103A C132G A147C]
GGAUCUUCUCGAUCUAACAAAAAAGACAAAUCUGCCACAAUGCUUGAGAGCAUCUUCGGAUUCAGAGGCGUCAGCCUUCGGUGGCGCGAUAGCGCCAACGUUCUCAACUAUGACACGCAAAACGCGUGCUCCGUUGAAUGGAGUUUAUCAUG [A41U G62U G71U]
GGAUCUUCUCGAUCUAACAAAAAAGACAAAUCUGCCACAAUGCUUGAGAGCAUCUUCGGAUGCAGAGGCGGCAACCUUCGGUGGCGCGAUAGCGCCAACGUUUUCAACUAUGAUACGCAAAACGCGUGCUCCGCUGAAUGGAGUUUAUCAUG [A41U G74A C103U C114U U134C]
GGAUCUUCUCGAUCUAACAAAAAAGACAAAUCUGCCACAAUGCUUGAGAGCAUCUUCGGAUGCAGAGGCGGCAACCUUCGGUGGCGCGAUAGCCCCAACGUUCUCAACUAUGACACGCAAAACGCGUGCUCCGUUGAAUGGAGUUUAUCAUG [A41U G74A G94C]
GGAUCUUCUCGAUCUAACAAAAAAGACAAAUCUGCCACAAUGCUUGAGAGCAUCUUCGGAUGCAGAGGCGGCAGCCUUCGGUCGCGCGAUAGCGCCAACGUUCUCAACUGUGACACGCAAAACGCAUGCUCCGUUGAAUGGAGUUUAUCAUG [A41U G83C A110G G126A]
GGAUCUUCUCGAUCUAACAAAAAAGACAAAUCUGCCACAAUGCUUGAGAGCAUCUUCGGAUGCAGAGGCGGCAGCCUUCGGUUGCGCUAUAGCGCCAACGUUCUCAACUAUGACACGCAUAACGCGUGCUCCGUUGAACGGAGUUUAUCAUG [A41U G83U G88U A120U U139C]
GGAUCUUCUCGAUCUAACAAAAAAGACAAAUCUGCCACAAUGCUAGAGAGCAUCUUCGGAUCCAGAGGCGGCAGCCUUCGGUGGCUCGAUAGCGCCAACGUUCUCAACUAUGACACGCAAAACGCGUGCUCCGUUGAAUGGAGUUUAUCAUG [A41U U45A G62C G86U]
GGAUCUUCUCGAUCUAACAAAAAAGACAAAUCUGCCACAAUGCUUGAGAGCAACUUCGGAUGCAGAGGCGGCACCCUUCGGCGGCGCGAUAGCGCCAACGUUCUCAACUAUGACACGCAAAACGCGUGCUCCGUUGAAUGGAGUUUAUCAUG [A41U U53A G74C U82C]
GGAUCUUCUCGAUCUAACAAAAAAGACAAAUCUGCCACAAUGCUUGAGAGCAACUUCGGAUGCAGAGGCGGCAGCCUUCGGUGGCGCAAUAGCGCCAACGGUCUCAAUUAUGACACGCAAAACGCGUCCUCCGUUGAAUGGCGUUUAUCAUG [A41U U53A G88A U101G C108U G128C A142C]
GGAUCUUCUCGAUCUAACAAAAAAGACAAAUCUGCCACAAUGCUUGAGAGCAGCUUCGGAUGCAGAGGCGGCAGCCUUCGGUUGCGCGAUAGAGCCAACGUUCUCAACUAUGACACGCAAAACGCGUGCUCGGUUGAAUGGAGUUUAUCAUG [A41U U53G G83U C93A C132G]
GGAUCUUCUCGAUCUAACAAAAAAGACAAAUCUGCCACAAUGCUUGAGAGCAUCAUCGGAUGCAGAGGCGGCAGCCUUUGGGUGAGCGAUAGCGCCAACGUUCUCAACUAUGAAACGCAUAACGCGUGCUCCGUUGAAUGGAGUUUAUCAUG [A41U U55A C79U U82G G83U C85A C114A A120U]
GGAUCUUCUCGAUCUAACAAAAAAGACAAAUCUGCCACAAUGCUUGAGAGCAUCGUCGAAUGCAGAGGCGGCAGCCGUCAGUGGCGCGAUAGCGCCAACGUUCUCAACUAUGACACGCAAAACGCGUGCUCCGUUGAAUGGAGUUUAUCAUG [A41U U55G G59A U77G G80A]
GGAUCUUCUCGAUCUAACAAAAAAGACAAAUCUGCCACAAUGCUUGAGAGCAUCUACGGAUGCAGAGGCGGCAGCCUUCGGUGGCGCGAUAGCCCCAACGUUCUCAACUAUGACACGCAAAACGCGUGCUCCGUUGAAUGGAGUUUGUCGUG [A41U U56A G94C A147G A150G]
GGAUCUUCUCGAUCUAACAAAAAAGACAAAUCUGCCACAAUGCUUGAGAGCAUCUUCGGAAGCAGAGUCGGCAGCCUUCGGUGGCGCGAUAGCGCCAACGUUCUCACCUAUGACACGCAAAACGCGUGCUCCGUUGAAUGGAGUGUAUCAUG [A41U U61A G68U A107C U145G]
GGAUCUUCUCGAUCUAACAAAAAAGACAAAUCUGCCACAAAACUUGCGAGCAUCUUCGGAUGCAGAGGCGGCAGCCUUCGGGGGCGCGAUAGCGCGAACGUUCUCAACUAUGACACGCAAAACGCGUGCUCCGUUGAAUGGAGUUUAUGAUG [G42A A47C U82G C96G C149G]
GGAUCUUCUCGAUCUAACAAAAAAGACAAAUCUGCCACAAAACUUGAGCGCAUCUUCGGAUGCAGAGGCGGCAGCCUUCGGUGGCGCGAUAGCGCCUACGUUCUCGACUAUGACACGCAAAAGGCGUGCUCCGUUGAAUGGAGUUUAUCAUG [G42A A49C A97U A106G C123G]
GGAUCUUCUCGAUCUAACAAAAAAGACAAAUCUGCCACAAAACUUGAGCGCAUUUUCGGAUGCAGAGGCGGCAGCCUUCGGUGGCGCGAUAGCGUCAACGUUCUCAACUAUGACACGUAAAACGCGUGCUCCGUUGAAUGGAGUUUAUCAUG [G42A A49C C54U C95U C118U]
GGAUCUUCUCGAUCUAACAAAAAAGACAAAUCUGCCACAAAACUUGAGCGCAUCUUCGGAUGCAGAGGGGGCAGCCUUCGGUGGCGCGAUAGCGCCAACGUUCUCAACUAUGACACGCAAAACGCGUGCUCCGUUGUAUGGAGUUUAUCAUG [G42A A49C C69G A137U]
GGAUCUUCUCGAUCUAACAAAAAAGACAAAUCUGCCACAAAACUUGAGGGCAUCUUCGGAUGCAGAGGCGGCAGCCUUCGGUGGCGCGAUAGAGUCAACGUUCUCAAGUAUGACACGCAAAACGCGUGCUCCGUUGAAUGGAGUUGAUCAUG [G42A A49G C93A C95U C108G U146G]
